Test results reported in the BET-seq Pho4 binding data (Le et al. 2018).
Some of the results follow. These are noisy estimates, calculated here from bound and input reads.

target: T1, Pho4 (S. cerevisiae) (UniProt P07270); test: relative binding free energy (BET-seq); higher = weaker binding; settings: reference: library average
T1 sequence: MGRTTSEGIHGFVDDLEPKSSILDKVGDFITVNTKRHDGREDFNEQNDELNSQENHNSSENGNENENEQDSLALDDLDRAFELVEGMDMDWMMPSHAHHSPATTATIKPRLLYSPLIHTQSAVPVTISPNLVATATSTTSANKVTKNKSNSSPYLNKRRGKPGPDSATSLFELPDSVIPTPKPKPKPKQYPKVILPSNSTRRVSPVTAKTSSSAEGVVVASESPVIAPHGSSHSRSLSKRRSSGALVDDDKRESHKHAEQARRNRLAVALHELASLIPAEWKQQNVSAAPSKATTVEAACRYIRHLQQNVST

Sequence | relative binding free energy [kcal/mol]
GCTGTCACGTGATGGT | 0.27
GTGATCACGTGGTGCT | 0.16
GATTGCACGTGCAGGT | -0.02
GTCGCCACGTGGTGGT | -0.06
GTTATCACGTGTAACT | 0.29
GGCGGCACGTGGTGAT | 0.01
ATTGACACGTGGGATT | -0.14
ATTGCCACGTGTAGGA | 0.05
ACGTTCACGTGTTTAT | 0.25
AGTGTCACGTGAGCGG | 0.13
GGTCACACGTGGGGTC | 0.12
CTGGGCACGTGTTGTA | 0
ATGTACACGTGTTTTA | 0.06
GTGTGCACGTGTTGAA | 0.02
GAGGGCACGTGTGTAT | -0.12
AGTTTCACGTGGATGA | 0.25
AGGAGCACGTGAGTTA | 0.22
TGCGTCACGTGCTGAT | 0.17
CATTTCACGTGTTCTG | 0.41
CTCGACACGTGAGGGT | 0.22
TATTTCACGTGGTATT | 0.28
CTTATCACGTGTTGTA | 0.15
ATTTTCACGTGCAGTT | 0.31
GTAACCACGTGGGTGG | -0.22
TGTTTCACGTGTGGAA | 0.27
GATAACACGTGTTTGA | 0.07

Sequence | relative binding free energy [kcal/mol]
ACGTGCACGTGAGTTG | 0.07
AAGGTCACGTGAAAGG | 0.32
GTTTACACGTGTCCGG | 0.27
ACGGGCACGTGAATTG | 0.19
TTATACACGTGAAATT | 0.29
CTTATCACGTGGGATT | 0.02
TACGTCACGTGATAGT | 0.28
TTGTTCACGTGACGTG | 0.41
GATGTCACGTGTCGAG | 0.22
AGTGTCACGTGTTAAT | 0.06
GTTAGCACGTGGAGAT | 0.05
TTTTTCACGTGTAAGC | 0.29
GTGTACACGTGGGCTT | 0.01
TAGGGCACGTGTAAAT | -0.02
ACTAGCACGTGGGTTT | -0.15
TCTTTCACGTGCTTGG | 0.31
GTAGTCACGTGTGATA | 0.15
TATTTCACGTGTAACT | 0.33
TGTTTCACGTGGCTTT | 0.12
GGTTGCACGTGGGGAG | -0.05
AGTGGCACGTGCTGTT | -0.28
TTCGACACGTGGGGAT | 0.08
CTTAGCACGTGTTCGG | -0.16
CGGGACACGTGATAGG | 0.18
TAGTGCACGTGCTTGG | -0.16
TGTCACACGTGGAGAG | 0.11

Sequence | relative binding free energy [kcal/mol]
TTCCTCACGTGAGTTG | 0.37
CGTATCACGTGGTGGT | -0.02
GGTTACACGTGACTGT | 0.19
CTAGTCACGTGTATGG | -0.06
AATTGCACGTGGGACT | 0.02
CTTCTCACGTGTGGTG | 0.17
TCGATCACGTGGTTAA | 0.16
GGATGCACGTGTTGTT | 0.09
GAGGGCACGTGATTAT | 0.05
TTATTCACGTGTGTCA | 0.36
TAATTCACGTGAGGCT | 0.35
CGGTACACGTGGGGCG | -0.1
TGTGACACGTGGAGTG | -0.02
GAGAGCACGTGGAGTA | -0.1
CAGGGCACGTGGCGGA | -0.26
TTCGACACGTGTAGGG | 0.17
TCTGGCACGTGGCGTA | -0.24
TTAAGCACGTGTAGGA | -0.04
TGTGTCACGTGCGTCA | -0.08
AAGGTCACGTGTGGAC | 0.02
AGGTACACGTGGTGCG | -0.07
CATGACACGTGTTTGT | 0
GCGAACACGTGGTGGG | -0.1
TTGTCCACGTGAGGTA | 0.15
GTTGGCACGTGAGTGG | 0.18
TGGATCACGTGGGTCA | -0.03

Sequence | relative binding free energy [kcal/mol]
GTGGTCACGTGACGGC | 0.24
AATTACACGTGGGGTT | -0.03
GGTTACACGTGATGTC | 0.39
TGGCTCACGTGTTACG | 0.33
TGTATCACGTGAGTGC | 0.29
TTGTTCACGTGCTTGG | 0.26
GTTTGCACGTGCTAGG | -0.03
GGTGACACGTGAGTTT | 0.36
TGGCTCACGTGGATGG | 0.25
TTGATCACGTGCATGT | 0.18
TGTGACACGTGCATGT | -0.06
TTATGCACGTGGGGTA | -0.25
ATCATCACGTGGTAGG | 0.05
GGCGGCACGTGTAACG | 0.13
TATACCACGTGAGTGG | 0.2
GATTGCACGTGTGTGA | 0.14
TAAATCACGTGGGGGC | 0.16
AAGAGCACGTGGCGGG | -0.24
TCGGGCACGTGTGTTT | -0.01
GGTGTCACGTGCGAAT | 0.09
AGGGACACGTGAAGGA | 0.27
TGAGTCACGTGCGTTT | 0.15
TATGGCACGTGAGTTT | 0.23
GGATTCACGTGGAGTT | 0.37
GTGCGCACGTGGACGT | -0.07
TGTGACACGTGAGCGG | 0.13

Sequence | relative binding free energy [kcal/mol]
ACGGTCACGTGGTTCG | 0.06
GTCATCACGTGTTTAT | 0.27
TGGGGCACGTGAGAAA | 0.21
TAGCGCACGTGTTATT | 0.08
TGGGCCACGTGTTTGA | -0.05
GGGGTCACGTGAGAGA | 0.46
AGTGTCACGTGGAGGC | 0.03
TAGAACACGTGGGGGG | -0.15
GGTCGCACGTGTTAGG | 0.08
CTGGGCACGTGCAAGG | -0.14
GTACTCACGTGTGGCG | 0.2
TGCGGCACGTGCGGCG | -0.14
CACTGCACGTGGGGGC | -0.14
AACTTCACGTGTGTAT | 0.4
TGGTACACGTGGTGTG | 0.05
GGGGACACGTGCTGGT | 0.02
TTAGCCACGTGGTTGT | -0.05
ACTATCACGTGATTTT | 0.34
TGTTACACGTGACTTA | 0.15
ATAGACACGTGGTCGG | -0.23
AGTAACACGTGTGGCA | 0.16
TGGCTCACGTGTAGAA | 0.28
ATTGTCACGTGGACGT | 0.01
GTTGGCACGTGGCTAT | -0.1
TAACTCACGTGGGGGC | 0.19
AGGTTCACGTGGTCGC | 0.27

Sequence | relative binding free energy [kcal/mol]
ATTGTCACGTGTCGGT | 0.15
ATTGTCACGTGCGGCA | 0.06
GTCTTCACGTGTGCTG | 0.28
GTTGGCACGTGCCGGT | -0.17
GTTCCCACGTGGAGGG | 0.03
GGATCCACGTGTGGTG | 0.15
AGTTACACGTGGTGCG | -0.04
AGTTGCACGTGTGGAT | 0.05
TAGAGCACGTGATATG | 0.02
GTGATCACGTGTGTAC | 0.17
ACTGGCACGTGTGGGT | -0.08
TTTGACACGTGATGTC | 0.16
GAAGTCACGTGCATGT | 0.19
GTTTGCACGTGCTGAT | 0
CGGGGCACGTGAAGAG | 0.03
CTGTTCACGTGGGGGG | 0.18
AAGTGCACGTGAGTAG | 0.1
ATATTCACGTGGTTTA | 0.16
TATGGCACGTGGATTC | -0.11
TCTTTCACGTGTGATG | 0.3
TGTGTCACGTGTGGTG | 0.15
GTGCTCACGTGCGGGG | 0.18
GGGGGCACGTGCCTGT | -0.26
TGTGACACGTGGCTGG | -0.14
AGGGTCACGTGGGAAG | 0.15
TTGTCCACGTGATGAG | 0.06

Sequence | relative binding free energy [kcal/mol]
TAGATCACGTGGTTGC | 0.22
CGTAACACGTGTCGGT | 0.19
GGTGGCACGTGATTGA | 0.08
TTTTACACGTGTCGGA | 0.29
ATGTGCACGTGTTAGA | -0.07
AGGTTCACGTGCGTCG | 0.39
TGCAGCACGTGTGTTA | 0.03
GTTTACACGTGGTATG | 0
AGGAACACGTGGGAGA | 0.01
CTTATCACGTGTAGTA | 0.23
TTGACCACGTGGTGGG | -0.16
TCGGGCACGTGTGTCT | -0.12
TCATACACGTGGCGGG | 0.1
TGAGGCACGTGGCTGT | -0.18
TGTCTCACGTGAGATT | 0.31
CCAGTCACGTGTAGGT | 0.18
TACTGCACGTGGTTGG | -0.03
TAATTCACGTGAGTGA | 0.37
ATTTGCACGTGGCGGC | -0.03
CCAGTCACGTGTGTTG | 0.1
TGCATCACGTGTTATT | 0.16
CTTGGCACGTGATTTA | -0.01
GGGTTCACGTGATTAT | 0.6
CAGTGCACGTGCGGGG | -0.15
AGAGACACGTGTATTA | 0.17
CGCTGCACGTGGGGAT | -0.07

Sequence | relative binding free energy [kcal/mol]
GGGTACACGTGCCGGT | 0.04
ATCGGCACGTGTTGAA | 0.07
TTCTTCACGTGATATT | 0.24
GTAAGCACGTGGACTT | 0.04
TGTTACACGTGTATCT | 0.28
TAATTCACGTGGGTGC | 0.13
GGATGCACGTGATGTA | 0.1
GTTGACACGTGGATTA | 0.13
GATGGCACGTGTTCGG | 0
AGTTTCACGTGTTTGG | 0.15
GGAAACACGTGTTTGT | 0.03
TGAGACACGTGAAAGG | 0.16
TGAGTCACGTGATAGA | 0.1
GTTAACACGTGAAGTT | 0.18
GGTAGCACGTGTCGGA | 0.05
CAGGACACGTGTAGGG | 0.1
ATGTGCACGTGGTTAT | -0.09
TTAATCACGTGCGTAG | 0.05
TGAAGCACGTGAGTGG | 0.08
ATGGCCACGTGGTTGA | -0.19
ATGAGCACGTGCTGGA | -0.15
CGGTGCACGTGAAATG | 0.35
AAAAGCACGTGATGTA | 0.12
ATTCACACGTGGTATT | 0
AATATCACGTGTTGGT | 0.07
TTAGTCACGTGGCCTT | -0.07

Sequence | relative binding free energy [kcal/mol]
TGCGCCACGTGGTGGA | -0.11
GAGGGCACGTGGACGG | 0
TCGGTCACGTGGTAGG | 0.14
ATTGTCACGTGTCGTT | 0.03
TACTTCACGTGTCGGT | 0.24
TGACTCACGTGGTTAT | 0.21
TTCGGCACGTGTGTAT | -0.09
TGTAGCACGTGAGAGC | 0.13
CTGGGCACGTGGGGCT | -0.22
TGTTTCACGTGTGGGT | 0.34
AGAGGCACGTGTTGGA | -0.12
TTTTGCACGTGAGCGT | 0.06
TAGTCCACGTGTGAGT | 0.17
TGTTTCACGTGGATGA | 0.19
TTTGACACGTGTGGTC | 0.06
AGTATCACGTGACGGA | 0.31
CGGGACACGTGGGGAA | -0.15
ATGCGCACGTGTGTGG | -0.25
CTGGTCACGTGATTGG | 0.31
CTGGGCACGTGTTCGG | -0.04
GTAATCACGTGCTGTG | 0.16
ATAAACACGTGCGGGG | -0.03
